The values that follow come from publication PMC11637378, “Optogenetic screening of MCT1 activity implicates a cluster of non-steroidal anti-inflammatory drugs (NSAIDs) as inhibitors of lactate transport” (PLOS ONE, 2024).

This test addresses T1, R. norvegicus MCT1 (F360C) (UniProt P36035+P53987, F360C).
T1 sequence (P36035+P53987 with tags, fused parts or gaps P53987:F360C): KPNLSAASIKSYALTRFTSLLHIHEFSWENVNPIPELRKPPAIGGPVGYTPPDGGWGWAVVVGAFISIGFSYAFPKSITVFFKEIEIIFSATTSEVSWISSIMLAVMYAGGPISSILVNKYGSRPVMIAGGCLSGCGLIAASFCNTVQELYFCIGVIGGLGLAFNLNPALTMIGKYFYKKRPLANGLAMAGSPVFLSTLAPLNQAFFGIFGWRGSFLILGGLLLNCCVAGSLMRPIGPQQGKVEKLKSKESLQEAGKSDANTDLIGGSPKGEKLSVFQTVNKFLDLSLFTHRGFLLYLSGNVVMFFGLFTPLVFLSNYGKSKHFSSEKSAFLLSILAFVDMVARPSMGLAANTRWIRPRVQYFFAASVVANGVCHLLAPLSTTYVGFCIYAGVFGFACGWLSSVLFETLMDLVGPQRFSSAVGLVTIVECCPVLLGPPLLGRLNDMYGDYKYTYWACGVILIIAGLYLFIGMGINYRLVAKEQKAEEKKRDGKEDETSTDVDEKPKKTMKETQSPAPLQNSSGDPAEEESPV
It is filed as cell-based.

Where two headings read alike, the source gives them in different places.

`CO[C@H]1C[C@@H]2CC[C@@H](C)[C@@](O)(O2)C(=O)C(=O)N2CCCC[C@H]2C(=O)O[C@H]([C@H](C)C[C@@H]2CC[C@@H](O)[C@H](OC)C2)CC(=O)[C@H](C)/C=C(\C)[C@@H](O)[C@@H](OC)C(=O)[C@H](C)C[C@H](C)/C=C/C=C/C=C/1C` [Rapamycin] registered a Day1 of 0.0549 and a Day2 of 0.1478. For the same compound, where the note is “10 μM”, the Fraction is given as 0.3714, the “Percent AZD3965” value was found to be 55.7084% and the Z.score is on record as -3.886.

In the case of `COc1ccc2c(c1)c(CC(=O)OCC(=O)O)c(C)n2C(=O)c1ccc(Cl)cc1` [Acemetacin], the “Percent AZD3965” value is 12.0016% and the Z-score was -0.6058.

Consider `O=C(Oc1ccccc1C(=O)O)c1ccccc1O` [Salsalate], for which the “Percent AZD3965” value is 15.525% and the Z-score is on record as -1.067.

As for `Cc1ccc(S(=O)(=O)N[C@@H](Cc2ccccc2)C(=O)CCl)cc1`, the “Percent AZD3965” value amounted to 72.7675%.

In turn, `O=C1c2ccccc2C(=O)c2c(O)c(O)cc(O)c21` [PURPURIN] displayed a Day1 of 0.2891 and a Day2 of 0.6964. In addition, for the setting “10 μM”, the Fraction is 0.4151, the “Percent AZD3965” value is 50.894% and the Z.score was -4.242.

Take `CC(C)Cn1c(=O)n(C)c(=O)c2[nH]cnc21` [3-Isobutyl-1-methylxanthine, reference compound]: the “Day1 (OD600 after 24 hours non-permissive dark conditions)” value came to 0.5765 and the “Day2 (OD600 after additional 24 hours permissive conditions)” value is recorded as 0.8308. Also, under “10 μM”, the “Fraction (growth in non-permissive phase divided by growth in permissive phase)” value is listed as 0.6939, the “Percent (percent AZD3965 score)” value is reported as -6.283% and the Z-score is given as 0.4262.

Consider `COc1ccc2c(c1)c(CC(=O)O)c(C)n2C(=O)c1ccc(Cl)cc1` [Indometacin], for which the “Percent AZD3965” value came out at 15.9426% and the Z-score was -0.9786.

As for `COC(=O)c1ccccc1O` [Methyl salicylate], the “Percent AZD3965” value is given as 2.824% and the Z-score is on record as -0.1298.

On to `CC1(C)C=Cc2c(c3c(c4c(=O)c(-c5ccc(O)c(O)c5)coc24)OC(C)(C)CC3)O1` [Isopomiferin], for which the Day1 was found to be 0.3372, the Day2 is 0.788, the Fraction came to 0.4279 and the Percent is listed as 48.4955%. Besides, the Z.score is -4.042.

In turn, `CC/C(=C(\c1ccccc1)c1ccc(OCCN(C)C)cc1)c1ccccc1.O=C(O)CC(O)(CC(=O)O)C(=O)O` [Tamoxifen Citrate] registered a Day1 of 0.3628, a Day2 of 0.8165, a Fraction of 0.4443 and an Offtarget_sub of 0.2095. The compound also showed a Z.score of -3.14.

Consider `CCCCCCC(=O)OC1CC(C)(C)NC(C)(C)C1.Cl` [TMPH hydrochloride, reference compound], for which the “Day1 (OD600 after 24 hours non-permissive dark conditions)” value is reported as 0.5599 and the “Day2 (OD600 after additional 24 hours permissive conditions)” value worked out at 0.8312. For the same compound, for the setting “10 μM”, the “Fraction (growth in non-permissive phase divided by growth in permissive phase)” value stood at 0.6736, the “Percent (percent AZD3965 score)” value was -2.347% and the Z-score was 0.1589.

As to `Cc1c(Cl)cccc1Nc1ccccc1C(=O)O` [Tolfenamic acid], the “Percent AZD3965” value was found to be 5.445% and the Z-score is listed as -0.275.

`NCCS(=O)(=O)O` [Taurine] registered a Day1 of 0.2305, a Day2 of 0.8742, a Fraction of 0.2637 and an Offtarget_sub of 0.0852. For the same compound, the “Percent AZD3965” value is listed as 76.6253% and the Z.score is -3.504.

For `O=C1CC(c2ccc(O)cc2)Oc2ccccc21` (centres unmarked) [4'-HYDROXYFLAVANONE], for the setting “10 μM”, the Fraction came to 0.2037, the “Percent AZD3965” value was found to be 86.9305% and the Z.score is -4.32.

Take `Cc1cccc(Nc2ccccc2C(=O)O)c1C` [mefenamic acid, reference compound]: the “Percent AZD3965” value was -1.599% and the Z-score is 0.1459.

`Nc1ccc(O)c(C(=O)O)c1` [Mesalamine]: the “Percent AZD3965” value is -0.6148% and the Z-score amounted to 0.03086.

`O=C(O)COC(=O)Cc1ccccc1Nc1c(Cl)cccc1Cl` [Aceclofenac]: the “Percent AZD3965” value was 32.7797% and the Z-score is on record as -1.654.

Consider `CC[C@H](c1ccc(O)cc1)[C@@H](CC)c1ccc(O)cc1` [HEXESTROL], for which, where the note is “10 μM”, the Fraction was 0.3476, the “Percent AZD3965” value worked out at 64.1097% and the Z.score is listed as -3.235.

For the compound `CCOC(=O)[C@@H](N)Cc1ccc(-c2cc(O[C@H](c3ccc(Cl)cc3-n3ccc(C)n3)C(F)(F)F)nc(N)n2)cc1.O=C(O)CNC(=O)c1ccccc1` [Telotristat Etiprate], the Day1 is on record as 0.1554, the Day2 is recorded as 0.8439, the Fraction is given as 0.1841 and the Offtarget_sub is on record as 0.0037. Further, the Z.score is -3.063. In addition, where the note is “10 μM”, the Fraction was 0.1841, the “Percent AZD3965” value stood at 93.4718% and the Z.score was -3.063.

`O=[N+]([O-])/C=C/c1ccc2c(c1)OCO2` [MNS] came in with a Day1 of 0.0443 and a Day2 of 0.9232. Besides, for the setting “10 μM”, the Fraction is listed as 0.04799, the “Percent AZD3965” value turned out to be 118.786% and the Z.score was -6.684.

Turning to `CC(C(=O)O)c1ccc2c(c1)Cc1cccnc1O2` (centres unmarked) [Pranoprofen], the “Percent AZD3965” value is 4.459% and the Z-score was -0.2252.

Regarding `CCCCC1C(=O)N(c2ccccc2)N(c2ccc(O)cc2)C1=O` (centres unmarked) [Oxyphenbutazone], the “Percent AZD3965” value turned out to be 3.439% and the Z-score is recorded as -0.2364.

With `CC(Cc1ccc(O)c(O)c1)C(C)Cc1ccc(O)c(O)c1` (centres unmarked) [Nordihydroguaiaretic acid], the Day1 is reported as 0.1035, the Day2 was determined as 0.7449, the Fraction came to 0.1389 and the Percent was determined as 102.566%. Besides, the Z.score is -3.361. For the same compound, where the note is “10 μM”, the Fraction came out at 0.1389, the “Percent AZD3965” value was determined as 102.566% and the Z.score is on record as -3.361.

For the compound `COc1c(C)c2c(c(O)c1C/C=C(\C)CCC(=O)O)C(=O)OC2` [MYCOPHENOLIC ACID], the Day1 was found to be 0.318, the Day2 is on record as 0.8495, the Fraction was 0.3743 and the “Percent AZD3965” value amounted to 60.7658%. Moreover, the Z.score is on record as -4.599.

`CO[C@H]1C[C@@H]2CC[C@@H](C)[C@@](O)(O2)C(=O)C(=O)N2CCCC[C@H]2C(=O)O[C@H]([C@H](C)C[C@@H]2CC[C@@H](O)[C@H](OC)C2)CC(=O)[C@H](C)/C=C(\C)[C@@H](O)[C@@H](OC)C(=O)[C@H](C)C[C@H](C)/C=C/C=C/C=C/1C` [SIROLIMUS] came in with a Day1 of 0.1744 and a Day2 of 0.7372. Further, under “10 μM”, the Fraction is 0.2366, the “Percent AZD3965” value is listed as 83.2137% and the Z.score is given as -5.44.

In the case of `O=C(/C=C/c1ccc(O)c(O)c1)OCCc1ccccc1` [PHENETHYL CAFFEATE (CAPE)], the Day1 stood at 0.0549 and the Day2 was determined as 0.7783. For the same compound, under “10 μM”, the Fraction worked out at 0.07054, the “Percent AZD3965” value was 114.39% and the Z.score was -5.685.

`CC[n+]1c(/C=C/C=C2/N(C)c3ccccc3C2(C)C)sc2ccccc21.[I-]` [AC-93253 iodide] had a Day1 of 0.0788 and a Day2 of 0.84. Also, for the setting “10 μM”, the Fraction came to 0.09381, the “Percent AZD3965” value was 109.58% and the Z.score is on record as -6.166.

On to `COc1ccc2c(c1)OCc1c-2oc2cc(OC)ccc12` [DEHYDROVARIABILIN], for which, under “10 μM”, the Fraction worked out at 0.3152, the “Percent AZD3965” value is 69.6526% and the Z.score is -5.806.

Turning to Loxoprofen, the “Percent AZD3965” value was -3.102% and the Z-score came to 0.1484.

Turning to `CC[C@H](c1ccc(O)cc1)[C@@H](CC)c1ccc(O)cc1` [Hexestrol], the Day1 was found to be 0.2767, the Day2 is reported as 0.796, the Fraction worked out at 0.3476 and the Percent turned out to be 64.1097%. The compound also gave a Z.score of -3.235.

As for `CC(C(=O)O)c1ccc(C(=O)c2cccs2)cc1` (centres unmarked) [Suprofen], the “Percent AZD3965” value was -0.3761% and the Z-score came to 0.01254.

The compound `O=C(CCc1ccc(O)cc1)c1c(O)cc(O)cc1O` [Phloretin] displayed a Day1 of 0.3412, a Day2 of 0.7935, a Fraction of 0.43 and an Offtarget_sub of 0.1879. In addition, the Percent came out at 49.1091%, the “Percent AZD3965” value is recorded as 49.1091% and the Z.score was -3.318.

As for `COc1ccc2c(c1)CC[C@@H]1[C@@H]2CC[C@]2(C)[C@H](NCCCCCCN3C(=O)C=CC3=O)CC[C@@H]12` [U 73122], the Day1 is given as 0.3216, the Day2 came to 0.8373, the Fraction is recorded as 0.3841 and the “Percent AZD3965” value worked out at 59.5129%. Besides, the Z.score is -3.681.
